The results in this text go back to the supplement of paper PMC3334620.

Whole data set: some 33,000 sequences, median “E-score (-0.5 to 0.5)” near -0.041, cut for the highest 2% near 0.37. Some of the results follow.

The test deals with T1, Ecm22 (UniProt Q05958).
T1 sequence: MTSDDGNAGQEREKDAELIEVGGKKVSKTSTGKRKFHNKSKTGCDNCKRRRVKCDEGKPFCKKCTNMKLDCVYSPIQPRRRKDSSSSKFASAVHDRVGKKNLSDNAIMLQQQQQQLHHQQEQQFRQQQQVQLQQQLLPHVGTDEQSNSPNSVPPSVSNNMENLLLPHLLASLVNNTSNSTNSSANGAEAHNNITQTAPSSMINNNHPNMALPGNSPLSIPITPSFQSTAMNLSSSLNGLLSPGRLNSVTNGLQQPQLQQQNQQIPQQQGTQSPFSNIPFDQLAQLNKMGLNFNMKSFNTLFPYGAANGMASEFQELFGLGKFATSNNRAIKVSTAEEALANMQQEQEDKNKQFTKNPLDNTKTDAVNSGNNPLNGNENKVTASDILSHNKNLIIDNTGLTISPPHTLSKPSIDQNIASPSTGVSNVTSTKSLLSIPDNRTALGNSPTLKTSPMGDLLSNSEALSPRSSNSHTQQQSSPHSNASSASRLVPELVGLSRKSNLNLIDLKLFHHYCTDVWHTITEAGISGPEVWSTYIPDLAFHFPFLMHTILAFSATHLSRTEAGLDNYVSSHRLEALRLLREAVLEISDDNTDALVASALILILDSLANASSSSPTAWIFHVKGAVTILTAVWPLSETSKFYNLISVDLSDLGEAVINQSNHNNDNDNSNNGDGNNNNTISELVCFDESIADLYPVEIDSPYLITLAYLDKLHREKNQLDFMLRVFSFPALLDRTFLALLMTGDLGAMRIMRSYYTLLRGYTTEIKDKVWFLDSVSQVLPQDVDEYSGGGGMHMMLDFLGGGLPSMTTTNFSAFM
The test can be described thus: PBM E-score (8-mer binding enrichment) (E-score (-0.5 to 0.5)); higher = stronger / more preferred TF binding; most listed sequences are background and not binding sites. Conditions: protein concentration: 200 nM; construct: GST-full length. In outline: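 GST-tagged yeast TFs (full-length or DNA-binding domain) were made by PURExpress in vitro transcription/translation and applied at about 100-200 nM to universal all-10-mer Agilent arrays. The arrays were made double-stranded by primer extension, on fresh or once-stripped slides. Bound protein was detected with fluorescent anti-GST, and scans were normalised with masliner. Each ungapped eight-base word, pooled with its reverse complement, received an E-score (modified Wilcoxon-Mann-Whitney statistic) from the Universal PBM Analysis Suite.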
For the sequence CGAATTCG, the “PBM E-score” value was found to be 0.0698. Take GAACGCGA: the “PBM E-score” value came out at 0.206. In the case of AGAGCAGA, the “PBM E-score” value is -0.0559. Turning to CGCGCACC, the “PBM E-score” value was found to be 0.129.

ATATGTAC: the “PBM E-score” value amounted to 0.115. ACCGTATA: the “PBM E-score” value came to 0.459. On to AAGCCGCT, for which the “PBM E-score” value was -0.0703. For ATAGAAAA the value was 0.0894. For AGACGGAT the value was 0.0104; for CAGAGGCA, -0.193; for CTCGCCGA, 0.134. For AGTATAAT the value was -0.0427. Take ACGTGTAC: the “PBM E-score” value is 0.107. The figure for AGGCGTTA is -0.223; for CAATCCAA it is 0.0239. The figure for ATCGGATC is 0.179; for CAAAGATA it is -0.0644.

Turning to TACTACCA, the “PBM E-score” value is -0.0787. On to CGTCCAGA, for which the “PBM E-score” value was -0.212. The figure for GCATATCC is 0.0197; for CCGGACAC it is -0.176; for ATCTTGCA it is 0.0319. The figure for GAAGCACC is -0.088; for CCGTGCAG it is -0.127; for GACTACTC it is 0.0944.

Regarding GTCGTAAA, the “PBM E-score” value was 0.473. For CCAACACC the value was -0.253; for AAAACTCC, -0.211. As to AAAGTGTG, the “PBM E-score” value is -0.168. ATTGGGAG: the “PBM E-score” value was -0.187.

Take TAGCAATA: the “PBM E-score” value was 0.153. For ACCAAAGA the value was -0.215; for CACTACTC, -0.0352; for AGAACAAT, -0.0916.

With CGTATAGC, the “PBM E-score” value was found to be 0.477. As for GGCATTGA, the “PBM E-score” value was -0.0257. For AAATTCGA, the “PBM E-score” value was -0.0581. The figure for TCCACACA is -0.107. As for AGATCGAC, the “PBM E-score” value is 0.199. Take CAGTGTCG: the “PBM E-score” value came out at 0.069.

Take CTAAAAAG: the “PBM E-score” value was -0.0394. The figure for GCCAAGGC is -0.203. For AATATTTA the value was 0.0828.

Take ATGCACTG: the “PBM E-score” value is -0.0645. The figure for ACACGGTC is -0.0081. As to AGTTACAG, the “PBM E-score” value is -0.119. As to CACGATAG, the “PBM E-score” value is -0.065. The figure for CCAAATGA is 0.134; for AGCTGGGC it is -0.132.

For GCAGTCAA, the “PBM E-score” value is -0.00987. GATCATTA: the “PBM E-score” value amounted to 0.0891.

For the sequence CGAACGCC, the “PBM E-score” value turned out to be 0.0398.

For AGCGGAAT, the “PBM E-score” value is -0.13. The figure for ATCCAGCA is -0.158. The figure for CCGCATAC is 0.163; for GCGTATAC it is 0.406. The figure for GGTCAGCA is 0.161. For the sequence ATGGAGTA, the “PBM E-score” value turned out to be 0.0683. Take AGGAGAAC: the “PBM E-score” value was -0.0736. The figure for CGTTGTAC is 0.275; for GTGAGGGA it is -0.207. For TAAGCACA the value was 0.028.

Regarding GTCCTCAA, the “PBM E-score” value was -0.0954. AATTCTGA: the “PBM E-score” value is -0.0999.

Regarding CGGGTCCC, the “PBM E-score” value was -0.0346. For ATCCCATG, the “PBM E-score” value is -0.299. The figure for ATGTGCTC is 0.0294; for GACGCGGA it is -0.00772; for CAACGTCG it is 0.249.

With CTCAAGGC, the “PBM E-score” value is -0.203. The figure for ATACACTC is 0.194. The figure for CATATTAA is 0.12; for ACAGCCGG it is 0.0245; for ACCAAGCA it is -0.0685.

Consider ACCGCCTA, for which the “PBM E-score” value was -0.0229. The figure for ACAGCACC is -0.276; for AGTTATGC it is -0.0646; for CCATTTTC it is -0.105. The figure for GGTTTGGA is -0.0817.

As for ATGTCGTG, the “PBM E-score” value was determined as 0.0288. For AGTTATAA the value was -0.147; for CTAATTCA, -0.0319. In the case of CGTACAAG, the “PBM E-score” value was 0.416. For CGCATGTA the value was 0.0596; for AAGCTCGA, 0.0757; for ACTGTTAC, 0.137.
